Hit rate of the full screen: of about 91,000 compounds, about 290 (0.32%) were called active. The inconclusive results got no clear call from the source; some entries with a clear call stand among them for comparison. The call rests on the fitted dose curve; in most records, active means well fitted inhibition curve with a large enough effect; inconclusive means small, poorly fitted or top-dose-only effect; inactive means no such curve, though single readings can be large or run the other way. Potencies of inconclusive entries are doubtful fits and often do not repeat.
Target: Single-stranded DNA cytosine deaminase (Homo sapiens) (UniProt Q9GZX7)
Assay: Primary qHTS assay for inhibitors of Activation Induced Cytidine Deaminase (AID): AID signal; further: nearly all actives have a fitted effect of over 25% in size
Conditions: AID deamination FRET fluorescence, UDG-coupled, 4 h; series mostly up to 115 µM
Potency means the concentration at half of the fitted maximal effect; tags describe the fitted curve by direction and shape.

UniProt Q9GZX7, sequence (Q9GZX7 whole entry, looked up): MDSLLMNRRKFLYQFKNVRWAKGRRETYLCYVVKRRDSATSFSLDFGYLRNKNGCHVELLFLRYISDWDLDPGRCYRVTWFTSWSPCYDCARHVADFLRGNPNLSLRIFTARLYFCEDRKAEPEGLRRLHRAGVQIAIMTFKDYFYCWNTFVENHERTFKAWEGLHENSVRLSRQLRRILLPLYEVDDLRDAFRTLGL

**Q.** How did the Potency turn out when `Oc1cccc(/C=C/c2nc3ccccc3s2)c1` was run?
**A.** inactive

**Q.** For `FC(F)(F)c1cccc(N/N=C/c2ccc(Cl)cc2Cl)c1`, which Potency is on record?
**A.** inactive

**Q.** With `COCCn1cc2c(c1-c1ccc(Cl)cc1)c(=O)n(C)c(=O)n2C` as the compound, how does the Potency read?
**A.** inactive

**Q.** Which Potency does the source give for `COc1ccccc1Nc1c2c(nc3ccc(NC(=O)c4cccc(OC)c4OC)cc13)CCCC2` here?
**A.** inconclusive: 35.5 µM [inhibitor, single point]

**Q.** With `O=C(Nc1cccc(C(=O)N2CCN(c3ccccc3F)CC2)c1)c1nsc2ccccc12` as the compound, how does the Potency read?
**A.** inconclusive: 28.2 µM [inhibitor, partial curve, poor fit]

**Q.** `COc1cccc(CNC(=O)c2ccc(-c3nc(CS(=O)(=O)c4ccccc4)c(C)o3)cc2)c1` was tested. Which Potency did it give?
**A.** inactive

**Q.** How did the Potency turn out when `CC(C)(C)C1CCc2c(sc(NC(=O)CCC(=O)O)c2C(=O)Nc2ccccc2C(F)(F)F)C1` (stereo unspecified) was run?
**A.** inconclusive: 56.2 µM [inhibitor, partial curve, poor fit]

**Q.** For `Cc1ccccc1C(=O)Nc1ccc2nc(Nc3cccc(C(F)(F)F)c3)cc(C)c2c1`, which Potency is on record?
**A.** inconclusive: 3.55 µM [inhibitor, full curve, poor fit]

**Q.** Which Potency does the source give for `FC(F)(F)c1cccc(N2CCN(Cc3nnc(-c4ccc5c(c4)OCO5)o3)CC2)c1` here?
**A.** inconclusive: 89.1 µM [inhibitor, partial curve, poor fit]

**Q.** With `Cc1c(CC(=O)O)c(=O)oc2c(C)c(OCc3cccc(Cl)c3)ccc12` as the compound, how does the Potency read?
**A.** inconclusive: 50.1 µM [inhibitor, partial curve]

**Q.** `FC(F)(F)c1cccc(-c2nnn3c2nc(NC2CCCCC2)c2ccccc23)c1` was tested. Which Potency did it give?
**A.** inconclusive: 89.1 µM [inhibitor, single point]

**Q.** `COc1ccccc1Cc1nc2ccccc2nc1SCC(=O)N1CCc2ccccc21` was tested. Which Potency did it give?
**A.** inactive

**Q.** Which Potency does the source give for `Cc1cccc(-c2nc(CSCC(=O)N3CCN(c4ccccc4)CC3)c(C)o2)c1` here?
**A.** inconclusive: 79.4 µM [inhibitor, partial curve, poor fit]

**Q.** How did the Potency turn out when `O=C(Nc1nnc(S(=O)(=O)N2CCCCCC2)s1)c1ccccc1Cl` was run?
**A.** inconclusive: 89.1 µM [inhibitor, single point]

**Q.** Which Potency does the source give for `Cc1ccc(CNC(=O)CCCN2C(=O)c3cccnc3Oc3ccc(Cl)cc32)cc1` here?
**A.** inconclusive: 79.4 µM [inhibitor, single point]

**Q.** `CCn1c(CNC(=O)c2ccc3c(c2)OCO3)nnc1SCC(=O)c1ccc(OC)cc1` was tested. Which Potency did it give?
**A.** inactive

**Q.** How did the Potency turn out when `Cc1ccc(Cl)cc1N1CCN(C(=O)c2cccn2-c2nnc(N3CCCC3)s2)CC1` was run?
**A.** inconclusive: 79.4 µM [inhibitor, partial curve, poor fit]

**Q.** With `CCN(C(=O)c1cc(S(=O)(=O)N2CCc3ccccc32)cn1C)c1cccc(C)c1` as the compound, how does the Potency read?
**A.** inconclusive: 89.1 µM [inhibitor, single point]

**Q.** For `Cc1ccc(Cn2c(C(=O)O)c(CNCc3cccs3)c3ccc(C)cc32)cc1`, which Potency is on record?
**A.** inconclusive: 89.1 µM [inhibitor, partial curve, poor fit]

**Q.** For `Cc1cccc(-n2nnnc2C2(N3CCCC3)CCCC2)c1`, which Potency is on record?
**A.** inactive

**Q.** For `CC(C)(C)OC(=O)N1CCC(c2c(C(=O)NCc3ccc4c(c3)OCO4)cnn2-c2ccccc2Cl)CC1`, which Potency is on record?
**A.** inconclusive: 44.7 µM [inhibitor, partial curve, poor fit]

**Q.** `COc1ccc(OC)c(C2C(C(=O)Nc3ccccc3OC)=C(C)Nc3c(C(=O)Nc4ccc(F)cc4)cnn32)c1` (stereo unspecified) was tested. Which Potency did it give?
**A.** active: 17.8 µM

**Q.** With `O=C(COc1ccccc1Cl)OCc1cccc(COC(=O)COc2ccccc2Cl)c1` as the compound, how does the Potency read?
**A.** inactive

**Q.** For `CCNC(=O)CSc1cc(C)c2cc(C)cc(C)c2n1`, which Potency is on record?
**A.** inactive

**Q.** For `N#Cc1c(-c2ccccc2)cc(-c2cccs2)nc1SCCS(=O)(=O)c1nc2ccccc2s1`, which Potency is on record?
**A.** inactive

**Q.** For `CC1(CBr)C2CCC1(C)C1(OCCO1)C21OCCO1` (stereo unspecified), which Potency is on record?
**A.** inactive

**Q.** Which Potency does the source give for `Fc1ccc(-c2ccc(CNCCSc3nnnn3-c3ccccc3)o2)cc1Cl` here?
**A.** inconclusive: 44.7 µM [inhibitor, partial curve, poor fit]

**Q.** For `CC(C)c1ccc2oc(-c3cccc(NC(=O)c4ccc5c(c4)OCCO5)c3)nc2c1`, which Potency is on record?
**A.** inconclusive: 2.82 µM [inhibitor, full curve, poor fit]

**Q.** For `CCN1c2cc(C)ccc2-n2cccc2C12CCN(C(=O)Nc1cc(OC)c(OC)c(OC)c1)CC2`, which Potency is on record?
**A.** inconclusive: 17.8 µM [inhibitor, full curve, poor fit]

**Q.** `CC1=C(C(=O)Nc2ccc(C)cc2)C(c2ccc(Cl)cc2)n2nnnc2N1` (stereo unspecified) was tested. Which Potency did it give?
**A.** inconclusive: 89.1 µM [inhibitor, single point]

**Q.** With `O=C(NCCC1=CCCCC1)c1ccc2c(c1)N(Cc1ccccc1F)C(=O)c1ccccc1S2(=O)=O` as the compound, how does the Potency read?
**A.** inconclusive: 20 µM [inhibitor, partial curve, poor fit]

**Q.** Which Potency does the source give for `CCn1c(SCC(=O)c2ccc(C#N)cc2)nnc1-c1ccccc1C` here?
**A.** inactive

**Q.** With `CC(C)Sc1ncc(Cl)c(C(=O)N(Cc2ccc(F)cc2)C2CCS(=O)(=O)C2)n1` (stereo unspecified) as the compound, how does the Potency read?
**A.** inconclusive: 56.2 µM [inhibitor, partial curve, poor fit]

**Q.** Which Potency does the source give for `CC(C)c1ccc(CS(=O)(=O)Cc2ccc(C#N)cc2)cc1` here?
**A.** inactive

**Q.** How did the Potency turn out when `Cc1cc(/C(=N\O)C(C)(C)NO)ccc1Cl` was run?
**A.** inactive

**Q.** Which Potency does the source give for `Cc1ccc(-n2ncc(C(=O)NCCc3ccsc3)c2C2CCN(C(=O)OC(C)(C)C)CC2)cc1C` here?
**A.** inconclusive: 50.1 µM [inhibitor, partial curve, poor fit]

**Q.** `CCN(CC)CCNC(=O)c1ccc(Cn2c(=O)c3cccn3c3cccnc32)cc1` was tested. Which Potency did it give?
**A.** inconclusive: 8.91 µM [inhibitor, full curve, poor fit]

**Q.** How did the Potency turn out when `CCc1ccc(C2NC(=O)NC(CN(CC)Cc3ccccc3)=C2C(=O)OC)cc1` (stereo unspecified) was run?
**A.** inconclusive: 50.1 µM [inhibitor, partial curve, poor fit]

**Q.** Which Potency does the source give for `CCCCn1c(CNC(=O)c2ccc(OC)cc2)nnc1SCC(=O)Nc1ccc(OC)cc1` here?
**A.** inconclusive: 15.8 µM [inhibitor, partial curve, poor fit]

**Q.** With `O=C(Nc1ccc(Cl)cc1)N1CCN(c2ccc3nnc(-c4ccc(F)cc4)n3n2)CC1` as the compound, how does the Potency read?
**A.** inconclusive: 14.1 µM [inhibitor, partial curve, poor fit]

**Q.** With `Cc1oc2c(C)c3o/c(=N/O)c4c(c3cc2c1C)CCCC4` as the compound, how does the Potency read?
**A.** inactive

**Q.** Which Potency does the source give for `O=C(c1ccc(OCCN2CCCCC2)cc1)c1c(-c2ccc(O)cc2)sc2cc(O)ccc12` here?
**A.** inconclusive: 56.2 µM [inhibitor, partial curve, poor fit]

**Q.** How did the Potency turn out when `Cc1ccc(C(=O)N(Cc2ccc(N(C)C)cc2)Cc2ccco2)cc1` was run?
**A.** inconclusive: 70.8 µM [inhibitor, single point]

**Q.** `Cn1c(=O)c2cc(C(=O)N3CCN(c4ccc(Cl)cc4)CC3)sc2c2ccccc21` was tested. Which Potency did it give?
**A.** inconclusive: 100 µM [inhibitor, single point]

**Q.** Which Potency does the source give for `CCC(C)NC(=O)c1cnn(-c2ccc(Cl)cc2)c1C1CCN(C(=O)OC(C)(C)C)CC1` (stereo unspecified) here?
**A.** inconclusive: 56.2 µM [inhibitor, partial curve, poor fit]

**Q.** Which Potency does the source give for `COc1cc(C(=O)Oc2c(Sc3ccc(C)cc3)c(C)nn2-c2ccccc2)cc(OC)c1OC` here?
**A.** inconclusive: 79.4 µM [inhibitor, single point]

**Q.** `NC(=O)CSc1n[nH]c2nc3c(c(=O)n12)C1(CCCCC1)Cc1ccccc1-3` was tested. Which Potency did it give?
**A.** inconclusive: 56.2 µM [inhibitor, partial curve, poor fit]

**Q.** `COc1ccc(C2CC(=O)Nc3c2ncn3-c2cccc(C(F)(F)F)c2)cc1OC` (stereo unspecified) was tested. Which Potency did it give?
**A.** inconclusive: 79.4 µM [inhibitor, partial curve]

**Q.** `O=C(Nc1cccc(Cl)c1Cl)c1ccc2c(c1)N(Cc1cccc(Cl)c1)C(=O)c1ccccc1S2(=O)=O` was tested. Which Potency did it give?
**A.** inconclusive: 20 µM [inhibitor, single point]

**Q.** For `COc1ccc(Nc2c3c(nc4ccc(NC(=O)c5ccc(F)cc5)cc24)CCCC3)cc1OC`, which Potency is on record?
**A.** inconclusive: 50.1 µM [inhibitor, partial curve, poor fit]

**Q.** For `CCN(CC)C1=NC(=O)C(CC(=O)Nc2cccc(C(=O)NCCc3ccccc3OC)c2)S1` (stereo unspecified), which Potency is on record?
**A.** inactive

**Q.** For `CCOc1ccc(CCNC(=O)c2cnc3sc(N4CCCC4)nn3c2=O)cc1`, which Potency is on record?
**A.** inconclusive: 50.1 µM [inhibitor, partial curve, poor fit]

**Q.** With `CC(C(=O)Nc1cc(Cl)cc(Cl)c1)N1CCN(c2ccc(O)cc2)CC1` (stereo unspecified) as the compound, how does the Potency read?
**A.** inactive

**Q.** For `Cc1ccc(Cl)cc1N1CCN(CCCNC(=O)c2ccc3nc(N4CCCCC4)sc3c2)CC1`, which Potency is on record?
**A.** inconclusive: 17.8 µM [inhibitor, full curve, poor fit]

**Q.** How did the Potency turn out when `COc1ccc(C2c3c(n(C)c4ccccc34)C(=O)N2CC(=O)Nc2cccc(F)c2)cc1` (stereo unspecified) was run?
**A.** inconclusive: 44.7 µM [inhibitor, full curve, poor fit]

**Q.** With `Cc1ccc(S(=O)(=O)Nc2nc3n(n2)C(c2ccc(F)cc2)C=C(c2ccccc2)N3)cc1` (stereo unspecified) as the compound, how does the Potency read?
**A.** inconclusive: 50.1 µM [inhibitor, partial curve, poor fit]

**Q.** For `COc1ccc(Cn2c(C(=O)O)c(CNCCc3cc(OC)ccc3OC)c3ccc(C)cc32)cc1`, which Potency is on record?
**A.** inconclusive: 15.8 µM [inhibitor, full curve]

**Q.** With `O=C(CSc1ncc(S(=O)(=O)c2ccc(Cl)cc2)c(=O)[nH]1)Nc1cccc(C(F)(F)F)c1` as the compound, how does the Potency read?
**A.** inconclusive: 79.4 µM [inhibitor, partial curve, poor fit]

**Q.** Which Potency does the source give for `Cc1cc(OCC(=O)N(Cc2ccc(N(C)C)cc2)CC2CCCO2)ccc1Cl` (stereo unspecified) here?
**A.** inconclusive: 89.1 µM [inhibitor, single point]

**Q.** `CC(C)Oc1ccc(C(=O)N(Cc2ccco2)Cc2cccs2)cc1` was tested. Which Potency did it give?
**A.** inconclusive: 56.2 µM [inhibitor, partial curve, poor fit]

**Q.** With `N#C/C(=C/c1cccc([N+](=O)[O-])c1)c1ccc(C(F)(F)F)cn1` as the compound, how does the Potency read?
**A.** inactive

Reference: PubChem BioAssay AID1347428 (National Center for Advancing Translational Sciences (NCATS), 2020)
